In all, about 94,000 compounds went through this assay and about 6,200 (6.6%) were called active. This list was built around the results that the source calls inconclusive (neither active nor inactive); the mix of calls is not that of the screen. Calls follow the shape of the dose curve; as a rule, active = well fitted inhibition curve with a large enough effect; inconclusive = small, poorly fitted or top-dose-only effect; inactive = flat fitted curve, though single readings scatter. Potencies beside an inconclusive call are fits to weak or partial responses and may not hold up.
Experiment: Cytotoxic Profiling in HEK 293 Cell Line of Diverse Libraries Using Quantitative High-Throughput Screening; also: nearly all actives have a fitted effect of over 60% in size
Conditions: HEK 293 viability, ATP luminescence (CellTiter-Glo), 48-72 h; series mostly up to 115 µM
Summary of the method: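 Read-out: CellTiter-Glo ATP luminescence. Cells: HEK 293, 250 cells/well. Exposure: 48 or 72 hr, 37 degree Celsius.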
For `CCc1ccc(C(=O)N2CCN(C3CCN(CCc4ccccc4)C3=O)CC2)cc1` (stereo unspecified), the Potency was “inactive”. For `Cc1cc(C)n(C2CN(c3cc(C4CC(O)C4)nc(C)n3)C2)n1` (stereo unspecified), the Potency was “inactive”. With `CCNC(=O)OC1CN(C(=O)c2ccc(C(C)(C)C)cc2)CCC(=O)N(C)c2ccccc21` (stereo unspecified) the Potency was inconclusive: 39.8 µM [inhibitor, single point]. For `COc1ccc(C(=O)N2CCN(C(=O)c3ccc(-c4ccc(OC)nn4)cc3)CC2)cc1`, the Potency was inconclusive: 50.1 µM [inhibitor, partial curve, poor fit]. With `O=C(c1cc(-c2cccs2)[nH]n1)N1CCc2c(nc(-c3ccccc3)[nH]c2=O)C1` the Potency was inconclusive: 44.7 µM [inhibitor, partial curve, poor fit]. For `O=c1ccc(N2CCC(NS(=O)(=O)c3ccc(Cl)s3)CC2)nn1CC1CC1`, the Potency was inconclusive: 22.4 µM [inhibitor, partial curve, poor fit]. In the case of `CN(C)C[C@@H]1CN(c2ncccn2)C[C@H]1NC(=O)Cc1ccccc1F`, the Potency is reported as “inactive”. With `OC(c1ccccc1)c1nc(Nc2ccc3c(c2)OCO3)n[nH]1` (stereo unspecified) the Potency was “inactive”. With `COc1ccc(-c2nc(C(C)C)nc3c2CCN(C(=O)C(C)(C)C)CC3)cc1` the Potency was inconclusive: 44.7 µM [inhibitor, partial curve, poor fit]. With `O=C(Nc1ccc(Cl)cc1)c1nc2c(o1)CCN(Cc1ccncc1)CC2` the Potency was inconclusive: 112 µM [inhibitor, partial curve, poor fit]. For `CN1C(=O)C2(CCCN(c3ncnc4[nH]ccc34)C2)c2ccccc21` (stereo unspecified), the Potency was “inactive”. In the case of `Fc1ccc(-c2noc(-c3ncn4c3COC(c3ccccc3Cl)C4)n2)cc1` (stereo unspecified), the Potency is reported as inconclusive: 56.2 µM [inhibitor, partial curve, poor fit]. In the case of `COc1ccc(N2CCN(C(=O)Nc3nc(C)ns3)CC2(C)C)cc1`, the Potency is reported as active: 10 µM. With `CCOC(=O)[C@@H]1[C@@H](O)C(=O)N(Cc2ccccc2)C12CCN(C(=O)/C=C/c1ccccc1)CC2` the Potency was inconclusive: 89.1 µM [inhibitor, partial curve, poor fit]. In the case of `CCN(CC)C(=O)N1CCC2(CC1)C(OC)C(=O)N2c1cccc(F)c1` (stereo unspecified), the Potency is reported as inconclusive: 28.2 µM [inhibitor, full curve]. In the case of `COc1ccc(C(=O)N2CCC(CCn3c(C)cnc3C3CC3)CC2)cc1`, the Potency is reported as inconclusive: 39.8 µM [inhibitor, partial curve, poor fit]. For `COc1ccc(C(=O)N[C@H]2CO[C@H]3[C@@H]2OC[C@@H]3Nc2nccc(-c3cccc(F)c3)n2)cc1`, the Potency was inconclusive: 79.4 µM [inhibitor, partial curve, poor fit]. For `CCOC(=O)c1cc2cc(NC(=O)C3=CC(C)(C)Oc4ccc(OC)cc43)ccc2o1`, the Potency was active: 44.7 µM. With `O=C(NCC1CC1)c1nc2c(o1)CCN(CCCc1ccccc1)CC2` the Potency was inconclusive: 112 µM [inhibitor, partial curve, poor fit]. With `Cc1ccc(C(=O)NC2CCCN(c3cc(-c4ccccc4)[nH]n3)C2)cc1F` (stereo unspecified) the Potency was inconclusive: 79.4 µM [inhibitor, partial curve, poor fit]. In the case of `COc1ccc(-c2cccc(C(=O)N3CCN(C(=O)c4ccccc4C)CC3)c2)nn1`, the Potency is reported as “inactive”. In the case of `COCc1nc2nc(-c3ccccc3)c(-c3ccc(OC)nc3)cc2n1C`, the Potency is reported as inconclusive: 112 µM [inhibitor, partial curve, poor fit]. With `O=C(NCCOc1ccccc1)C1CN(c2ccc(Cl)cc2)C(=O)N1` (stereo unspecified) the Potency was “inactive”. For `Cc1cc(F)ccc1NC(=O)CCC1CCCN(C(=O)c2ccc(Cl)s2)C1` (stereo unspecified), the Potency was inconclusive: 31.6 µM [inhibitor, full curve]. In the case of `Cc1cnc(C(=O)N[C@@H]2CCC[C@@H]2C(=O)N2CCC(N3CCCCC3)CC2)cn1`, the Potency is reported as “inactive”. With `CC(C)CCNC(=O)N1CCC2(CC1)CN(C(C)C)C2c1ccccc1` (stereo unspecified) the Potency was “inactive”. With `COc1ccc(CN2CCNC(=O)C2CC(=O)NCc2ccco2)c(F)c1` (stereo unspecified) the Potency was inconclusive: 89.1 µM [inhibitor, single point]. For `Cc1cc(CNC(=O)c2cccc(C3CCNC3)c2)ccc1F` (stereo unspecified), the Potency was inconclusive: 89.1 µM [inhibitor, single point]. With `O=C(Cn1cccc1-c1nc(-c2ccccc2)no1)NCCCc1ccccc1` the Potency was active: 44.7 µM. With `Cc1ccc(CNC(=O)CC2=C3CCCCC3N(Cc3ccc(F)cc3)C2=O)cc1` (stereo unspecified) the Potency was “inactive”. With `COc1ccccc1N1CCN(C(=O)Cn2c(C)cc3nc4n(c(=O)c32)CCCCC4)CC1` the Potency was inconclusive: 44.7 µM [inhibitor, partial curve, poor fit]. With `O=C(NC1CCCC1)N1CCc2nc(C3CC3)nc(-c3ccc(Cl)cc3)c2C1` the Potency was inconclusive: 89.1 µM [inhibitor, single point]. With `COc1ccc(-c2nn(-c3ccccc3)cc2CN2CCOC(C)(C)C2)c(F)c1` the Potency was inconclusive: 89.1 µM [inhibitor, partial curve, poor fit]. In the case of `COCCn1c(C)cnc1CC1CCCN(Cc2cccc(F)c2)C1` (stereo unspecified), the Potency is reported as “inactive”. In the case of `COc1ccc([C@H](C)NC(=O)c2c(C)noc2-c2ccc(OC(F)(F)F)cc2)cc1`, the Potency is reported as inconclusive: 50.1 µM [inhibitor, partial curve, poor fit]. In the case of `CCC(C)NC(=O)C(NC(=O)c1ccccc1Cl)C1CCN(C(=O)CCc2ccccc2)CC1` (stereo unspecified), the Potency is reported as inconclusive: 89.1 µM [inhibitor, single point]. With `O=C1Nc2ccc(-c3ccsc3)cc2C(=O)N2C[C@@H](NS(=O)(=O)c3ccc(F)cc3)C[C@@H]12` the Potency was “inactive”. With `Fc1ccc(CN2CCC3(CC2)CC(c2cccc(C(F)(F)F)c2)=NO3)cc1` the Potency was inconclusive: 50.1 µM [inhibitor, partial curve, poor fit]. In the case of `CN(C)c1ccc(NC(=O)Cn2cccc2-c2nc(-c3ccccc3)no2)cc1`, the Potency is reported as inconclusive: 89.1 µM [inhibitor, single point]. With `COc1ccc(-c2ccccc2NC(=O)C2CCCN2C(=O)CC(C)(C)C)cc1` (stereo unspecified) the Potency was inconclusive: 79.4 µM [inhibitor, partial curve, poor fit]. For `Cc1ccc2nc3n(c2c1)[C@@H](CNC(=O)COc1ccccc1)COC3`, the Potency was inconclusive: 79.4 µM [inhibitor, partial curve].

Source: PubChem BioAssay AID1345083 (National Center for Advancing Translational Sciences (NCATS), 2018)
Potency is read from the fitted curve at half-maximal effect; tags tell the direction and shape of the fitted curve.
